# In the supplement of paper PMC3334620:
# In all, about 33,000 sequences were measured (“E-score (-0.5 to 0.5)”: median about -0.036, highest 2% from about 0.37 on). The list shows a part of the results.
# Molecular target: T1, Yer064c (UniProt P40041)
# T1 sequence: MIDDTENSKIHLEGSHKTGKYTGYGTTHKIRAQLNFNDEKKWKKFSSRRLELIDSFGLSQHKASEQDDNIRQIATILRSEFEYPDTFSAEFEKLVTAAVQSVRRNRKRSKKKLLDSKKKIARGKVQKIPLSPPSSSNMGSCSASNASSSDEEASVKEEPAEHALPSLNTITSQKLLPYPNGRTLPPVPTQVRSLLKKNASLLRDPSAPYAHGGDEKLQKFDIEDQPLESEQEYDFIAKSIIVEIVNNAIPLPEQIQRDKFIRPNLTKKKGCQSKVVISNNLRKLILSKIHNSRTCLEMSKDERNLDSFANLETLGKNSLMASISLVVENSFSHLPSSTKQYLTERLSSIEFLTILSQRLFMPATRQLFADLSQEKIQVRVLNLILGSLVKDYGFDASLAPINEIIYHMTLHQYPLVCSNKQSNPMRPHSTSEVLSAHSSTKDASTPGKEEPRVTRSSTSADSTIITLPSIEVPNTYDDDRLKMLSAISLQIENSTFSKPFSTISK
# Test: PBM E-score (8-mer binding enrichment) (E-score (-0.5 to 0.5)); higher = stronger / more preferred TF binding; most listed sequences are background and not binding sites
# Conditions: protein concentration: 200 nM; construct: GST-full length
# Summary of the method: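 For each ungapped eight-base word taken together with its reverse complement, the Universal PBM Analysis Suite assigned an E-score. Binding data came from GST-tagged yeast transcription factors, applied at about 100-200 nM, on universal all-10-mer Agilent arrays made double-stranded by primer extension. Fluorescent anti-GST marked bound protein, and scans were normalised with masliner.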
row,Sequence,PBM E-score
1,CAGTGACC,-0.00082
2,CCTGCAAA,-0.134
3,GAAAGAAA,-0.0206
4,GTAGGGTA,-0.0234
5,AACGGTAA,0.0279
6,ACTCCCGA,0.22
7,TACAAGAA,0.0444
8,GTAAGCAC,-0.0905
9,CCGGGCTA,-0.0362
10,CTAGTCAC,0.461
11,GTTGACAA,-0.00857
12,CACAGGTG,0.0776
13,CTGCCCAA,-0.185
14,AACTACCC,-0.158
15,ATACGTGC,-0.121
16,AAGGTAGA,-0.209
17,AGATTTAA,0.2
18,AATCGTAG,0.205
19,CGTCCCAC,-0.266
20,ACACGCGC,0.144
21,CTAAGGCA,0.0444
22,GAGTTGCA,-0.00197
23,CTCGAATA,-0.0731
24,ATGCACCG,-0.173

row,Sequence,PBM E-score
1,AAAGAATT,-0.0489
2,CCGCACAA,-0.122
3,CTGCCATC,-0.212
4,AAGTGGTC,-0.0366
5,GAGGTACC,-0.107
6,ACCCGCTA,-0.134
7,CGACACCC,-0.0371
8,ATTCTGTA,0.0953
9,AGAAGTAA,0.0211
10,AAATTATG,0.0387
11,CGCATCTA,-0.0834
12,CATGTCCC,-0.0789
13,CCGTTAAG,-0.183
14,TGCAATAA,0.041
15,GATCAGCC,0.0932
16,CGGTAGAA,-0.0656
17,ATTGACGG,-0.0819
18,AACGTGAC,0.104
19,CGGATTGA,0.0416
20,AGTTTGGG,-0.0255
21,AGCGGATC,-0.053
22,AATGATGC,-0.0368
23,AGCAAAAC,-0.0941
24,AATCAGTG,0.239

row,Sequence,PBM E-score
1,ACCACCAG,0.0691
2,GCCCTTAC,-0.167
3,CTATAAGA,0.0928
4,GCGGGCAC,-0.0624
5,ACTCGAGA,0.24
6,CAGGGGCC,-0.269
7,GTCATCGA,0.389
8,TCCGTCGA,-0.0817
9,CTCCTCAG,0.0502
10,CTTCCAGC,-0.114
11,TCGAAACA,0.207
12,GGCGCGCA,-0.246
13,TCCTGCGA,0.0947
14,ATGCTTTA,-0.0329
15,CGGAGGTA,0.164
16,AGCTTTTC,-0.18
17,AGAGGTCG,0.0208
18,CTCGAGTA,0.109
19,CTTGTAAC,0.102
20,AGGTTACG,-0.183
21,ACATTAGT,0.13
22,GTAAGCAA,-0.0587
23,CCGCAGTA,-0.0332
24,AATACTTA,0.12

row,Sequence,PBM E-score
1,TACGAGGA,-0.0579
2,ATACTTAA,0.179
3,TAATTCGA,0.0432
4,CTTTTGGC,-0.0163
5,AATGCAAC,-0.256
6,ATTTCAGC,-0.18
7,CTGACATC,-0.222
8,CAGTTTAA,0.0554
9,ACCTGGGA,-0.104
10,GGCCAAAA,-0.0971
11,AGATGCGG,-0.102
12,CCAACCTA,-0.291
13,CACCATAG,-0.0571
14,CATAACAC,0.0877
15,ACGACACC,0.0392
16,CATGCAAA,-0.0743
17,CATCTCAG,0.00118
18,CAGCTGCG,-0.0211
19,GTACTTCA,0.134
20,AACCACCG,0.0976
21,ACGCGGAA,-0.064
22,CTATCGAA,-0.0972
